The supplement of paper PMC12217912
The other results are listed elsewhere or left out. The full chains were built here from the parent and the listed change. Values near 0.05 are background.

B1: TEV protease; numbered along this chain (parent)
chain: MGESLFKGPRDYNPISSSICHLTNESDGHTTSLYGIGFGPFIITNKHLFRRNNGTLVVQSLHGVFKVKDTTTLQQHLVDGRDMIIIRMPKDFPPFPQKLKFREPQREERICLVTTNFQTKSMSSMVSDTSCTFPSGDGIFWKHWIQTKDGQCGSPLVSTRDGFIVGIHSASNFTNTNNYFTSVPKNFMELLTNQEAQQWVSGWRLNADSVLWGGHKVFMVKPEEPFQPVKEATQL

Variants of: B1
Test: raw area under fraction-flipped curve 0-4 h after induction (AUC4h, not background-subtracted), DNA-recorder readout of cleavage of the substrate (dimensionless); higher = more cleavage of the substrate by the protease variant
Details: temperature: 34 °C; time window: 0-4 h after rhamnose induction
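Further: Bxb1 expression induced with 0.2% (w/v) L-rhamnose at OD600 near 0.5, cultures sampled hourly, flipped fraction per protease–substrate barcode pair counted by paired-end Illumina sequencing.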

Row | Variant | area with substrate ENCYFQS | area with substrate ENDYFQS | area with substrate ENEYFQS | area with substrate ENFYFQS | area with substrate ENGYFQS | area with substrate ENHYFQS | area with substrate ENIYFQS | area with substrate ENKYFQS | area with substrate ENRYFQS | area with substrate ENSYFQS | area with substrate ENVYFQS | area with substrate ENWYFQS | area with substrate ENMYFQS | area with substrate ENNYFQS | area with substrate ENPYFQS | area with substrate ENQYFQS | area with substrate ENTYFQS | area with substrate ENYYFQS | area with substrate ENAYFQS
1 | R109Q | 0.0698 | 0.075 | 0.0519 | 0.0631 | 0.0575 | 0.0605 | 0.104 | 0.063 | 0.0602 | 0.0718 | 0.0723 | 0.0562 |  |  |  |  |  |  | 
2 | E223K | 0.0694 | 0.0589 | 0.0823 | 0.0553 | 0.0576 | 0.0559 |  | 0.0743 | 0.0565 | 0.0541 | 0.103 | 0.0309 | 0.0808 | 0.0471 | 0.0511 | 0.0477 | 0.0586 |  | 
3 | R10M | 0.0682 | 0.0497 | 0.0577 | 0.055 | 0.0643 |  |  |  | 0.0605 | 0.0637 | 0.083 | 0.0412 | 0.0665 | 0.0582 | 0.0549 | 0.0592 | 0.0479 | 0.0598 | 
4 | I15K |  | 0.047 | 0.0554 | 0.0465 | 0.0602 | 0.0549 | 0.0595 | 0.065 | 0.0553 | 0.0672 | 0.0735 | 0.0551 | 0.0696 | 0.0632 | 0.0451 | 0.0554 | 0.0535 | 0.0576 | 
5 | E231C |  | 0.0651 |  |  | 0.0667 | 0.0583 | 0.103 | 0.0662 | 0.0303 | 0.0656 | 0.0886 | 0.0476 | 0.101 |  |  |  | 0.0689 | 0.059 | 0.055
6 | L156H | 0.0543 | 0.0563 | 0.0821 | 0.0533 | 0.0465 | 0.0529 | 0.0529 | 0.0599 | 0.0492 | 0.0615 | 0.0522 |  | 0.0651 |  | 0.0602 | 0.0606 |  | 0.0572 | 
7 | P93M | 0.0733 |  | 0.0738 | 0.0582 | 0.0527 | 0.0542 | 0.142 |  | 0.0796 | 0.0641 | 0.0951 | 0.0043 | 0.0739 |  | 0.0636 | 0.0571 |  | 0.0762 | 
8 | N24E | 0.0648 | 0.0554 | 0.0591 | 0.0646 | 0.0698 | 0.0613 | 0.1 |  | 0.0443 | 0.0442 | 0.0554 |  |  | 0.0657 |  | 0.0552 | 0.0721 |  | 
9 | Q234W | 0.0439 | 0.0606 | 0.0549 | 0.0539 | 0.0639 | 0.0517 |  | 0.0692 |  | 0.0765 |  |  | 0.0669 |  |  | 0.0481 |  | 0.0616 | 0.0497
10 | W203G | 0.0525 | 0.058 | 0.0619 | 0.0563 | 0.064 |  | 0.0667 |  |  | 0.0597 |  |  | 0.0785 | 0.103 |  | 0.0645 | 0.0472 |  | 
11 | H21C | 0.0659 |  | 0.0559 |  | 0.0467 | 0.0584 |  |  | 0.0527 | 0.0617 | 0.0571 |  | 0.0647 | 0.032 | 0.0688 | 0.055 | 0.0669 | 0.0646 | 
12 | H21Q | 0.0719 | 0.0666 | 0.0543 | 0.0555 | 0.0606 | 0.0639 | 0.0822 | 0.0479 | 0.0544 | 0.0556 | 0.0704 | 0.048 |  | 0.0642 | 0.0234 | 0.0526 | 0.0518 |  | 
